# Reference: the supplement of paper PMC4166925
# ± gives the standard deviation of the averaged measurements. The full ranking holds about 33,000 sequences; the median of “E-score (dimensionless, -0.5 to 0.5)” is about -0.049, and the highest 2% start at about 0.37. The list shows a part of the results.
# System: T1, PmTbr T-box DNA-binding domain (GST fusion)
# T1 sequence: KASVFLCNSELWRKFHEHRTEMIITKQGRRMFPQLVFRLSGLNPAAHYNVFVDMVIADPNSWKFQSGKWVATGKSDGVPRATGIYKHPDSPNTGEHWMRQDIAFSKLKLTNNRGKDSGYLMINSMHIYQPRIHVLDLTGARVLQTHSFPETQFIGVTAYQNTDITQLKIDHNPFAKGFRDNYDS
# Assay: PBM E-score of 8-mer (E-score (dimensionless, -0.5 to 0.5)); Tbr is Tbrain of the sea star Patiria miniata (Pm) or the sea urchin Strongylocentrotus purpuratus (Sp); higher = stronger binding preference; most listed sequences are background and not binding sites
# Conditions: the construct has about 5 more residues each side
# Description: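 Universal protein-binding microarray (Agilent AMADID 016060, 60-bp probes with a 35-bp variable region) incubated with 200 nM GST-fused Patiria miniata Tbr T-box DNA-binding domain (residues 272-466) in PBS pH 7.5. Scored for every ungapped 8-mer (given with its reverse complement) by the Universal PBM Analysis Suite as E-score (modified Wilcoxon-Mann-Whitney enrichment, range -0.5 to 0.5; >0.45 counts as bound) and Z-score of median probe intensity. Two replicate arrays (datasets 1 and 2).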
# 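Note: 200 nM protein in PBS on universal arrays averaged over duplicate arrays.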
row,Sequence,PBM E-score of 8-mer
1,GCTATGCC,-0.172 ± 0.045
2,CCCTGCTA,0.0423 ± 0.0081
3,TCTATCAA,-0.148 ± 0.052
4,TGATTACA,0.0958 ± 0.048
5,AGCTACTG,-0.13 ± 0.055
6,TAACGCCA,0.245 ± 0.051
7,ATGCCTAG,-0.218 ± 0.064
8,CAACCTCC,0.16 ± 0.033
9,ATCAAGAA,-0.26 ± 0.073
10,AGTATCCA,-0.0526 ± 0.08
11,ACCCCTAT,0.024 ± 0.0092
12,AAGATGAA,-0.131 ± 0.065
13,GTCAACGA,0.234 ± 0.014
14,CGACCTGC,0.196 ± 0.043
15,CGATGTGC,0.236 ± 0.082
16,CAGTGTGA,0.3958 ± 0.0034
17,GATGGCCA,-0.286 ± 0.0032
18,ACTCCCAC,0.202 ± 0.0068
19,GTGCGTTA,0.0621 ± 0.02
20,TGATACAA,0.126 ± 0.037
21,ACCATTCT,0.00522 ± 0.013
22,GACAGGAA,0.08894 ± 0.00038
23,CACCCTGA,0.239 ± 0.049
24,CGATCCGA,-0.184 ± 0.068

row,Sequence,PBM E-score of 8-mer
1,CTGCGCAA,0.00455 ± 0.037
2,TAACTACA,-0.0529 ± 0.014
3,CAAAACAC,0.182 ± 0.0029
4,CACCCTCC,0.28 ± 0.063
5,CTGTATGA,-0.163 ± 0.043
6,ACGTAGAG,-0.136 ± 0.046
7,AACGAGCT,-0.207 ± 0.056
8,AAACCTTC,-0.268 ± 0.086
9,GATTGTTA,0.109 ± 0.061
10,CCAGTAGC,-0.13 ± 0.063
11,CCTCAGCG,-0.0753 ± 0.039
12,AGTGGAAG,-0.0694 ± 0.034
13,ATGAACTG,-0.0337 ± 0.061
14,CCCGACTC,0.0379 ± 0.046
15,CGTAGCAG,0.0216 ± 0.014
16,GGACTTCA,-0.364 ± 0.011
17,ACTTGGCA,0.239 ± 0.015
18,AGCCTATG,-0.182 ± 0.025
19,GTTCTCAA,0.0659 ± 0.04
20,CGACGCAC,-0.0252 ± 0.048
21,GATGGACC,-0.0799 ± 0.023
22,ACTTCGCG,0.32923 ± 0.00015
23,ACTACAAG,-0.00619 ± 0.011
24,CTACAAGA,-0.175 ± 0.032

row,Sequence,PBM E-score of 8-mer
1,CGTCTGTC,-0.0173 ± 0.047
2,AATACTCG,-0.0236 ± 0.098
3,GACATGAA,0.127 ± 0.07
4,CGCTTTCA,0.0848 ± 0.014
5,CGCGCACG,0.132 ± 0.017
6,CAGCTCCG,0.0604 ± 0.0069
7,CTCTAACC,-0.103 ± 0.089
8,CTTCTAAC,0.0384 ± 0.091
9,AACTATAA,-0.203 ± 0.11
10,TAAGCCTA,-0.159 ± 0.044
11,CATGTAGC,-0.0571 ± 0.074
12,AAGCGTGC,0.11 ± 0.036
13,TCTTTGCA,0.137 ± 0.043
14,ATGACCCG,-0.146 ± 0.068
15,GCATACGA,-0.109 ± 0.041
16,CCGCAGAA,-0.267 ± 0.0057
17,CGTTTTCC,-0.202 ± 0.03
18,CTCAGGTC,-0.21 ± 0.05
19,CATGACCC,-0.29 ± 0.034
20,GCCACCAC,0.122 ± 0.08
21,CTCAACCC,-0.17 ± 0.071
22,CACTTGCC,0.327 ± 0.027
23,ATTTATGG,-0.0215 ± 0.03
24,CTGCCTAA,-0.11 ± 0.074

row,Sequence,PBM E-score of 8-mer
1,GGAACAGA,-0.0553 ± 0.052
2,GGCGATGA,0.117 ± 0.0038
3,CGGCCAGC,-0.127 ± 0.033
4,AGAGCTCT,-0.224 ± 0.07
5,AGCCCGAG,-0.255 ± 0.066
6,ACCAGCAC,0.146 ± 0.06
7,CCAAGCCG,-0.3061 ± 0.00071
8,ATCGTCTA,-0.095 ± 0.0027
9,CGACGTGC,0.245 ± 0.019
10,CGAACTTA,0.125 ± 0.02
11,CCTCGAAA,-0.0356 ± 0.1
12,AAGGAGTA,-0.268 ± 0.019
13,AATTGTCG,0.207 ± 0.018
14,TATGGCCA,-0.244 ± 0.0028
15,AGTCGACA,0.253 ± 0.013
16,CTTAACTC,-0.0873 ± 0.031
17,AAGGTATA,-0.247 ± 0.074
18,ATCCGCGA,0.128 ± 0.023
19,TAAGCGCA,0.0205 ± 0.088
20,ACCAATGG,-0.0861 ± 0.043
21,CACCCACC,0.251 ± 0.054
22,CCCCAGAA,-0.214 ± 0.054
